The other results are listed elsewhere or left out.

This assay concerns PfHDP1 homeodomain (GST-tagged). The experiment in a line: gcPBM binding intensity (ln(normalized median fluorescence intensity)); higher = stronger DNA binding. The gist of the method: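 DNA-binding domains from P. falciparum, fused to GST and produced in E. coli, were put on an Agilent 4 × 180k double-stranded probe array for 1 h in 1× PBS holding 1% milk, 0.2 mg/ml BSA, 0.5% salmon testes DNA and 0.03% Triton X-100. Probes were primer-extended, 36 bp long and drawn from intergenic genomic regions, with negative controls included. After Alexa488 anti-GST antibody detection and a 488 nm scan, binding intensity was set as the highest Masliner-normalised natural-log median intensity across replicate spots of either probe orientation.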
Turning to “ACATAATAAAAATAAATTCATAAGTAAATAAATAAA [TGCATGCA_negctrl_site186]”, the “gcPBM binding intensity (ln)” value came to 6.23.

As for “TGAATAAATCAAAGCACACATACACCCACATATATA [CACACA_site286]”, the “gcPBM binding intensity (ln)” value was 6.98.

“TGCTACATTTTATGTACACACATATACAGATATATA [CACACA_site4646]”: the “gcPBM binding intensity (ln)” value stood at 6.36.

For the sequence “GAAAAAAGAAATTAAACATGCATCTGCAAATTTAAA [TGCATGCA_site974]”, the “gcPBM binding intensity (ln)” value was 6.29.

With “AATAATATTTAATACACACACCAGTTCTGCAAATTT [CACACA_site7712]”, the “gcPBM binding intensity (ln)” value worked out at 7.3.

As to “AATAGTAAAAGATATACACACACCAAAAAATATAAT [CACACA_site5293]”, the “gcPBM binding intensity (ln)” value is 7.22.

In the case of “CAGGGCAGGGGGAAGGGTACACATAAAAGAAAATAA [XGTACX_site172]”, the “gcPBM binding intensity (ln)” value came out at 7.31.

On to “AAAAATAAACGACAGTGTACTAAATATTTAATTTTC [XGTACX_site3580]”, for which the “gcPBM binding intensity (ln)” value worked out at 6.4.

Turning to “TATTCTAAAGAAATTACACACATGCAATGAAAAAAA [CACACA_site6895]”, the “gcPBM binding intensity (ln)” value was 6.48.

For “TATAAATATATATTTTGTACTTAATATAAATTTATA [XGTACX_site7996]”, the “gcPBM binding intensity (ln)” value stood at 6.31.

Take “ATACAATTTATTTTAACACACGAATGAATTGATTAT [CACACA_site4160]”: the “gcPBM binding intensity (ln)” value is 6.3.

Consider “ATACAAATATACTTTTGTACGAAGAAATATATATAT [XGTACX_site3912]”, for which the “gcPBM binding intensity (ln)” value came out at 7.87.

Take “GGTTCATATCTTAACACACACATACATATTATAGAT [CACACA_site7392]”: the “gcPBM binding intensity (ln)” value came out at 7.08.

Turning to “TAAAGAAACTATTCAACACACGGTCTAATTATTACA [CACACA_site1064]”, the “gcPBM binding intensity (ln)” value worked out at 6.15.

As to “ATAAAAAAAATAAAAAGTACAAAAAAAAAAAATGGA [XGTACX_site136]”, the “gcPBM binding intensity (ln)” value amounted to 6.64.

Take “TTATATATTTTTATGTGTACTTATATATATATATAT [XGTACX_site6211]”: the “gcPBM binding intensity (ln)” value was 8.92.

Turning to “TACTTATTTAAAATAGTGCATGAATAGAAGATATAT [GTGCAC_site9756]”, the “gcPBM binding intensity (ln)” value is 7.65.

Take “AACAAAAACACTTTTACACACATAAGTAAAATATAT [CACACA_site1994]”: the “gcPBM binding intensity (ln)” value came out at 6.62.

Take “ATTTCCCTATATAGAGCATGCACTATATTCAAATGA [TGCATGCA_site531]”: the “gcPBM binding intensity (ln)” value came out at 8.59.

With “CACAAAGACACAAACACACACACACCCACATACATA [CACACA_site452]”, the “gcPBM binding intensity (ln)” value came to 6.86.

Turning to “TTTTATAATTTCTTCTGTACATATATATGAAAATAT [XGTACX_site74]”, the “gcPBM binding intensity (ln)” value stood at 6.67.

On to “TCAACCAAAACATAAGCATGCAATATATTTTTATAC [TGCATGCA_site560]”, for which the “gcPBM binding intensity (ln)” value was 6.56.

In the case of “AAAAAAAAATATAACAGTACATAAACATATGAATAT [XGTACX_site7093]”, the “gcPBM binding intensity (ln)” value came to 6.39.

Consider “TATGAAGTACACAATACACACTAATTATATATAAAT [CACACA_site5444]”, for which the “gcPBM binding intensity (ln)” value worked out at 6.69.

As for “TTTTTAAAAAAACATACACACAAAAAAAAAAAAAAA [CACACA_site3935]”, the “gcPBM binding intensity (ln)” value was determined as 6.29.

For “AATATTTATTTTATATGTACATAATTTATTTTTAAT [XGTACX_site776]”, the “gcPBM binding intensity (ln)” value stood at 6.45.

For the sequence “AAAAAAAAAAAAAAAACACACAAGGATCATATATAT [CACACA_site3812]”, the “gcPBM binding intensity (ln)” value came to 6.57.

As to “GATTTGTCTTACAGTGGTACACTTATATATATGTGA [XGTACX_site2899]”, the “gcPBM binding intensity (ln)” value amounted to 6.69.

Take “TTTTTTTATATAGACACAAAAGAAAATTACATATAC [CACACA_negctrl_site235]”: the “gcPBM binding intensity (ln)” value was 6.49.

“TATAATATATATATATTTATATATATCTTCCTAATC [GTGCAC_negctrl_site682]”: the “gcPBM binding intensity (ln)” value amounted to 6.08.

“TATAAATATAGACACACACACACCAAAGCGTAGCGC [CACACA_site6179]”: the “gcPBM binding intensity (ln)” value was 6.45.

“TATATATATTATAATACATGCGGTGATGAAAGTTAT [TGCATGCA_site924]”: the “gcPBM binding intensity (ln)” value worked out at 7.13.

For “CAATTTTACTCATAAACACACATATAGATGTTATTA [CACACA_site7474]”, the “gcPBM binding intensity (ln)” value came to 6.52.

For the sequence “TATATATATATATGATGTACATGAAAATTTCCAAAA [XGTACX_site5472]”, the “gcPBM binding intensity (ln)” value was determined as 9.27.

Take “ATATCTGAAGTGTAAAGTACATATATATATTCATAT [XGTACX_site4612]”: the “gcPBM binding intensity (ln)” value turned out to be 6.69.

On to “TATATTTTTTAATTCACACAAAAATGAAAAATATTT [CACACA_site6001]”, for which the “gcPBM binding intensity (ln)” value turned out to be 6.16.

For “ATTTTATCAAGAGGAAGTACATTACCCCATGAAAAA [XGTACX_site8295]”, the “gcPBM binding intensity (ln)” value worked out at 6.44.

Consider “AATAAAAATATATCCACACACATATATATATCTGTA [CACACA_site4481]”, for which the “gcPBM binding intensity (ln)” value came to 6.54.

Turning to “TATATTATATTTTTATGTACATATATGTTTTTTTTT [XGTACX_site8239]”, the “gcPBM binding intensity (ln)” value is 6.6.

In the case of “AATATAAATAATAGTAGTACATATATATCTCAGAAA [XGTACX_site4055]”, the “gcPBM binding intensity (ln)” value is 6.38.

Turning to “AATGGAGTTTATAAGTATAAACGAGGGATACCTAAA [XGTACX_negctrl_site483]”, the “gcPBM binding intensity (ln)” value stood at 6.77.

As to “TTATGTTGTAAATGCACACATACATATACGCAGTTT [CACACA_site3015]”, the “gcPBM binding intensity (ln)” value stood at 9.92.

As for “TAAATAAATTTATACACACACACACCCATATATATA [CACACA_site849]”, the “gcPBM binding intensity (ln)” value was 7.

Turning to “AAAAAATCAAAACACACACACACACTAGAAAAAAAA [CACACA_site4909]”, the “gcPBM binding intensity (ln)” value stood at 6.8.

For “ATATAAGCGTATACATGTACATATATATCTTTGTAA [XGTACX_site2742]”, the “gcPBM binding intensity (ln)” value is 6.7.

For “TATGTAAATCTCTTAAGAATTCGCTATATCTCTTTT [CACACA_negctrl_site1180]”, the “gcPBM binding intensity (ln)” value came out at 6.08.

Turning to “AGGCTACGAATAGAATGTACCCGAAATAAGGAATAT [XGTACX_site6012]”, the “gcPBM binding intensity (ln)” value turned out to be 6.57.

Take “CTAAAATACGGACACACACACACATATATATATATA [CACACA_site6138]”: the “gcPBM binding intensity (ln)” value worked out at 9.22.

On to “AAAAAAAAAAAAAACACACACACAAAAAAAAATATA [CACACA_site1104]”, for which the “gcPBM binding intensity (ln)” value turned out to be 6.5.

For “ATTATCTCCGCCATGTGGACACATATAAGACATTTT [XGTACX_site2889]”, the “gcPBM binding intensity (ln)” value was determined as 6.9.

As to “ATTGTATATAAATGAGTGCATACTATGTTGTTCTTA [GTGCAC_site9678]”, the “gcPBM binding intensity (ln)” value amounted to 7.8.

Take “GAGTAAATAAATAAATGTACATATATATATATTATC [XGTACX_site8466]”: the “gcPBM binding intensity (ln)” value came out at 6.59.

“TATAATAAATATTAACGTACTCATATATATATATAT [XGTACX_site3871]”: the “gcPBM binding intensity (ln)” value stood at 9.26.

In the case of “ATACATAAATATTGATGTACTCATTTAATATATTAT [XGTACX_site3992]”, the “gcPBM binding intensity (ln)” value came to 6.33.

Turning to “AATATATATATATATATATATTTTTGTTAGAATATG [XGTACX_negctrl_site58]”, the “gcPBM binding intensity (ln)” value was determined as 7.09.

In the case of “GCAAGGAAATAATTGATAATATATATATATATATAT [GTGCAC_negctrl_site400]”, the “gcPBM binding intensity (ln)” value is 9.2.

Values taken from the supplement of paper PMC11417369.
